Measured values as given in PubChem BioAssay (NCATS).
Inconclusive results, whose numbers are uncertain, are shown with a selection of clear calls. No potency is given beside an inconclusive call; the fits are too rough. Activity calls are given as the source filed them. Calls follow the shape of the dose curve; as a rule, active = well fitted inhibition curve with a large enough effect; inconclusive = small, poorly fitted or top-dose-only effect; inactive = no such curve, though single readings can be large or run the other way.

assay: BET inhibitor-based combinations targeting novel dependencies in MECOM-rearranged (r) AML: OCI-AML3 cell line (AID 2202232); conditions: CellTiter-Glo luminescence, 48 h; Potency: OCI-AML3 viability; viability (% of control): at 46 µM (top of the series); also: nearly all actives have a fitted effect of over 35% in size;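 as to viability (% of control): plate controls were DMSO vehicle wells for no effect and wells without cells for full effect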
Procedure, shortened: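 A 48 hr incubation preceded viability reading by CellTiter-Glo, with 15 min room-temperature development. Dose series had 11 points; normalization used DMSO and empty wells; AUC was computed and mean-centered per line as Z-AUC.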
Potency is read from the fitted curve at half-maximal effect; tags tell the direction and shape of the fitted curve.

Structure (SMILES)	viability (% of control)	Potency
O=C([O-])C[O-].[Pt+2]	inactive: 114%	
Cn1c(=O)c2c(ncn2CC(O)CO)n(C)c1=O (stereo not given)		inconclusive [inhibitor, partial curve, poor fit]
c1ccc2c(-c3cnn4cc(-c5ccc(OCCN6CCOCC6)cc5)cnc34)ccnc2c1		inconclusive [inhibitor, partial curve]
Cc1cc2c(cc1C1(c3ccc(C(=O)O)cn3)CC1)C(C)(C)CCC2(C)C		inconclusive [inhibitor, full curve, poor fit]
CCCS(=O)(=O)Nc1ccc(F)c(C(=O)c2c[nH]c3ncc(-c4ccc(Cl)cc4)cc23)c1F	inactive: 100%	
CC(C)(O)c1coc(S(=O)(=O)NC(=O)Nc2c3c(cc4c2CCC4)CCC3)c1	inactive: 94.7%	
CC(=O)NC(CS)C(=O)O (stereo not given)		inconclusive [inhibitor, single point]
CN1C(N)=N[C@](C)(c2cc(NC(=O)c3ccc(F)cn3)ccc2F)CS1(=O)=O	inactive: 104%	
O=[N+]([O-])c1cn2c(n1)OC[C@@H](OCc1ccc(OC(F)(F)F)cc1)C2		inconclusive [inhibitor, partial curve, poor fit]
C/C=C(/C)C(=O)O[C@H]1C(C)=CC23C(=O)C(C=C(CO)[C@@H](O)[C@]12O)[C@H]1[C@@H](C[C@H]3C)C1(C)C (stereo not given in full)		active: 0.0053 µM
CC1(C)Cc2c(sc(NC(=S)NC(=O)c3ccccc3)c2C(=O)O)CO1	inactive: 105%	
CC(C)=CC[C@@H](O)C1=CC(=O)c2c(O)ccc(O)c2C1=O		active: 14.8 µM
CN(CCOc1ccc(-c2ccc3c(c2)OCO3)cc1C(C)(C)C)CC(=O)O		inconclusive [inhibitor, partial curve, poor fit]
CCCc1nc2c(C)cc(-c3nc4ccccc4n3C)cc2n1Cc1ccc(-c2ccccc2C(=O)O)cc1	inactive: 115%	
COc1c(OCCCN2CCOCC2)ccc2c3n(c(=NC(=O)c4cnc(N)nc4)nc12)CCN3		active: 0.034 µM
C=Cc1c(C)c2cc3nc(cc4[nH]c(cc5nc(cc1[nH]2)C(C)=C5CCC(=O)O)c(CCC(=O)OC)c4C)[C@@]1(C)C3=CC=C(C(=O)OC)[C@H]1C(=O)OC		inconclusive [inhibitor, partial curve]
Cc1ccc(NC(=O)[C@H]2CCCN(C(=O)c3c(C)cccc3F)[C@H]2c2ccc(NC3CCCC3)cc2)cc1C(F)(F)F		inconclusive [inhibitor, single point]
O=c1cc(-c2ccccc2)oc2cc(O)cc(O)c12		inconclusive [inhibitor, partial curve, poor fit]
Cc1ccc(NS(=O)(=O)c2ccc3c(c2)C2C=CCC2C(c2ccc(C(=O)O)cc2)N3)cc1C (stereo not given)	inactive: 114%	
Cc1c(Cn2c(C)nc3c(C(=O)O)cc(N4CCOCC4)cc32)cccc1C(F)(F)F		inconclusive [inhibitor, full curve, poor fit]
OC[C@H]1O[C@@H](Oc2cc(O)cc(/C=C/c3ccc(O)cc3)c2)[C@H](O)[C@@H](O)[C@@H]1O	inactive: 101%	
COCCNc1cc(NC(=O)N2CCCc3cc(CN4CCN(C)CC4=O)c(C=O)nc32)ncc1C#N		inconclusive [inhibitor, partial curve, poor fit]
C[C@@H]1N=C(N)NC(N(C)C)=N1		inconclusive [inhibitor, partial curve, poor fit]
Cc1ccc(S(=O)(=O)NC(=O)NN2CC3CCCC3C2)cc1 (stereo not given)		inconclusive [inhibitor, full curve, poor fit]
CC1(C)[C@@H](O)CC[C@]2(C)[C@H]3C(=O)C=C4[C@@H]5C[C@@](C)(C(=O)O)CC[C@]5(C)CC[C@@]4(C)[C@]3(C)CC[C@@H]12	inactive: 92.7%	
CCOC(=O)[C@H](CCc1ccccc1)N[C@H]1CCc2ccccc2N(CC(=O)O)C1=O		inconclusive [inhibitor, partial curve, poor fit]
C[C@H](CCC(=O)O)[C@H]1CC[C@H]2[C@@H]3[C@H](O)C[C@@H]4C[C@H](O)CC[C@]4(C)[C@H]3CC[C@]12C	inactive: 102%	
Cc1cc(-c2cc(OC(=O)c3ccccc3)ccc2Cl)cc2nnc(Nc3ccc(OCCN4CCCC4)cc3)nc12		inconclusive [inhibitor, single point]
COc1cc2c(cc1O)CCN[C@]21CS[C@@H]2c3c(OC(C)=O)c(C)c4c(c3[C@H](COC1=O)N1[C@@H]2[C@H]2c3c(cc(C)c(OC)c3O)C[C@@H]([C@@H]1O)N2C)OCO4		active: 0.0096 µM
Cn1c(-c2ccccc2C(F)(F)F)nnc1C12CCC(c3noc(C4CC(F)(F)C4)n3)(CC1)CC2		inconclusive [inhibitor, partial curve, poor fit]
